Reference: PubChem BioAssay AID1240 (Sanford-Burnham Center for Chemical Genomics, 2008)
Hit rate of the full screen: of about 50,000 compounds, about 800 (1.6%) showed an effect of 50% or more. The list shows a part of the results.

Molecular target: Bcl-2-like protein 10 (Homo sapiens) (UniProt Q9HD36)
Test: TR3 peptide-Bcl-B binding displacers, biochemical primary FP assay, phenotype converters (AID 1240);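 also: 0% = Bcl-B with tracer peptide and DMSO and 100% = tracer peptide lacking Bcl-B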
Conditions: GST-Bcl-B / FITC-TR3 peptide fluorescence polarization; stronger effect = higher value; compound at 3.75 mg/L

Chain of UniProt Q9HD36 (Q9HD36 whole entry, looked up): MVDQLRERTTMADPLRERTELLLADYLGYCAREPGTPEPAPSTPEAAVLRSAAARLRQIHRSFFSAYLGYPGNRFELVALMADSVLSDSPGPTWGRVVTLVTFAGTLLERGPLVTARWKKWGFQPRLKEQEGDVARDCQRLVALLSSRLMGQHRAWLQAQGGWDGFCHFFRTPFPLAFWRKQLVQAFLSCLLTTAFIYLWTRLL

| SMILES | displacement [%] |
| --- | --- |
| COc1ccc(C2CC(C(F)(F)F)n3nc(C(=O)Nc4cc(OC)c(Cl)cc4OC)c(Cl)c3N2)cc1 (stereo not drawn) | 0.4 |
| CSC(=Nc1ccc(C)cc1)Nc1ccc(C)cc1 | 4.7 |
| COc1ccc(OC)c(C=C2C(=O)N(C)C(=S)N(C)C2=O)c1 | 12.2 |
| Fc1ccccc1OCCCCCN1CCCCC1 | 4.2 |
| O=C1c2[nH]nc(-c3ccccc3)c2C(c2cccc(F)c2)N1c1ccccc1 (stereo not drawn) | -0.7 |
| COc1cc(C(=O)NCCCNc2ccc([N+](=O)[O-])cc2)cc(OC)c1OC | 1.1 |
| Oc1ccccc1/C=N/Nc1nc(N2CCCC2)nc(N2CCCC2)n1 | -3.1 |
| O=C1/C(=C/c2ccc([N+](=O)[O-])cc2)C=C(c2ccccc2)N1c1ccc(O)cc1 | 11.4 |
| Cn1c(N2C(=O)CC(Cc3ccccc3)C2=O)nc2ccccc21 (stereo not drawn) | -19.7 |
| O=C(NC1CCN(Cc2ccccc2)CC1)c1ccccc1F | 2.4 |
| CCOC(=O)C1=C(c2ccccc2)N=c2s/c(=C\c3ccc(N(C)C)o3)c(=O)n2C1c1ccc(OC)c(OC)c1 (stereo not drawn) | 10.7 |
| COc1ccc(NC(=O)c2c(-c3ccccc3Cl)noc2C)c(OC)c1 | 10.5 |
| CCOC(=O)CN1C(=O)Nc2ccc(Br)cc2C1c1ccccc1 (stereo not drawn) | -5.8 |
| COC(=O)CN1C(=O)/C(=C\c2cccs2)SC1=S | 0.6 |
| COc1cc(OC)cc(C(=O)Nc2cc3oc4ccccc4c3cc2OC)c1 | -2.1 |
| CC(=O)NC(NCc1cccnc1)C(Cl)(Cl)Cl (stereo not drawn) | -2 |
| O=C(Nc1ccc(OC(F)(F)F)cc1)c1ccc(-c2cccc(Cl)c2)o1 | 28 |
| Cc1ccccc1C(=O)Nc1ccccc1C(=O)Nc1ccc(C(=O)O)cc1 | 2.5 |
| Cc1cc(OCC(=O)Nc2cccc(Br)c2)ccc1Cl | 11.6 |
| CCOc1ccc(/C=N/NC(=O)c2ccc(C(=O)N/N=C/c3ccc(OCC)c(OC)c3)o2)cc1OC | 9.9 |
| COc1ccc(CCNS(=O)(=O)c2cccc([N+](=O)[O-])c2)cc1OC | 3.4 |
| Cc1ccc(NC2=C(Cl)C(=O)N(c3ccccc3Cl)C2=O)cc1C | -2 |
| C=CCOc1ccccc1/C=N/N=C(N)N | -14 |
| COc1ccccc1C1CC(=O)NC(SCc2ccccc2)=C1C#N (stereo not drawn) | -2.3 |
| FC(F)(F)c1cccc(NC(=S)Nc2ccccc2)c1 | 9.2 |

| SMILES | displacement [%] |
| --- | --- |
| CC(=O)Nc1ccn(-c2ccccc2)n1 | 15 |
| CC(=O)NC(c1ccc(N(C)C)cc1)c1c(O)ccc2ccccc12 (stereo not drawn) | 0.9 |
| CC(=O)NC(=O)CC(=O)c1ccccc1 | -1.5 |
| COc1ccc(N=C2CC(C)(C)CC(=O)/C2=C(O)\C=C\c2ccccc2)cc1 | 7.8 |
| O=C1c2ccccc2C(=O)N1CC(=O)n1c2c(c3ccccc31)CCCC2 | -4.4 |
| O=C(/C=C/c1ccccc1[N+](=O)[O-])c1ccccc1 | 8.1 |
| O=C(NCCCN1CCOCC1)c1cccc(Cl)c1 | 9.8 |
| c1ccc2c(c1)[nH]c1nc3nncn3nc12 | 6.2 |
| Cc1c(CCO)sc[n+]1CC(=O)OC12CC3CC(CC(C3)C1)C2 | 7.1 |
| CCc1cc2c(=O)c(-c3nc4ccccc4[nH]3)coc2c(CN2CCOCC2)c1O | 8.5 |
| O=C1c2cccc3cccc(c23)C(=O)N1CCOc1ccccc1 | 7.1 |
| O=C(Nc1ncccc1Cl)c1ccccc1F | 0 |
| COc1ccc(OC)c(/C=C2/C=C(c3ccccc3)OC2=O)c1 | -24.5 |
| COC(=O)c1cc(NC(=O)c2ccc(C(C)C)cc2)cc(C(=O)OC)c1 | 10 |
| Cc1ccc(/C=N/Nc2nc(C(C)(C)C)cs2)o1 | 0.6 |
| O=[N+]([O-])c1cccc(-n2nncc2C23CC4CC(CC(C4)C2)C3)c1 | -9.6 |
| COc1cccc(C(=O)N2CCNCC2)c1OC | -2.2 |
| O=C(NCC1CCCO1)c1nn2c(C(F)(F)F)cc(-c3ccco3)nc2c1Cl (stereo not drawn) | 7.1 |
| COc1ccc(CC(=O)N2N=C(C)CC2(O)c2ccc(Br)cc2)cc1OC (stereo not drawn) | -8.3 |
| CCn1c2ccccc2c2cc(C=Nc3cccc4c(=O)[nH][nH]c(=O)c34)ccc21 | 4.1 |
| O=C(Nc1ccccc1F)c1cc2cc(Br)ccc2oc1=O | 0.4 |
| COc1ccc(C(=O)NC(=S)Nc2cccc([N+](=O)[O-])c2)cc1 | 6.4 |
| CC(=O)OCCNC(=O)/C(=C\c1ccc(Cl)cc1)NC(=O)c1ccccc1 | 4.8 |
| Cn1nnnc1SCc1nc2ccccc2[nH]1 | -1.1 |
| CNc1nc(Nc2ccccc2C(=O)c2ccccc2)nc(OC(C(F)(F)F)C(F)(F)F)n1 | 15.9 |

| SMILES | displacement [%] |
| --- | --- |
| O=C1OC(c2ccc(F)cc2)=N/C1=C\c1ccc(Cl)cc1 | 4.3 |
| Cc1occc1-c1nc(-c2cccnc2)no1 | 1.8 |
| Cc1cccc(C(=O)Nc2sc3c(c2C(=O)N2CCOCC2)CCCCC3)c1 | 2.3 |
| C=CCNC(=O)CN(c1ccc(C)c(Cl)c1)S(C)(=O)=O | -13.4 |
| O=C(O)c1ccccc1C(=O)n1cnc2ccccc21 | -4.5 |
| O=C(COc1cccc(Cl)c1)N/N=C/c1cc(Br)cc(I)c1O | 23.6 |
| CCOc1ccc(C(=O)NCC2OCCc3ccccc32)cc1 (stereo not drawn) | -4.1 |
| Cc1ccc(-c2cc(C(F)(F)F)n3nc(-c4ccccc4)cc3n2)cc1 | 43.8 |
| N#C/C(=C\c1ccc(OCc2ccccc2)cc1)c1nc(-c2ccccc2)cs1 | 7.6 |
| CCSc1nc2sc3c(c2c(=O)n1Cc1ccccc1)CCc1ccccc1-3 | -11.5 |
| CC1CCCCN1c1ccc(C(=O)c2ccccc2)cc1F (stereo not drawn) | -2.4 |
| O=C(Nc1nnc(-c2ccccc2)s1)c1ccco1 | 1.2 |
| Cc1ccccc1CN1CCN(S(C)(=O)=O)CC1 | 9.5 |
| O=C(NCc1ccco1)C(=O)Nc1cccc(C(F)(F)F)c1 | 12.3 |
| COc1ccc(C(=O)N2CCOCC2)cc1I | -3.9 |
| CCOC(=O)c1c(NC(=O)Oc2ccccc2)sc2c1CCC(C)C2 (stereo not drawn) | -13.6 |
| COc1ccccc1NC(=O)C(=O)NNC(=O)c1cccc(Cl)c1 | -8 |
| Cc1c(O)ccc2c1oc(=O)c1ccccc12 | -8.3 |
| COc1cccc(CCNC2CC(=O)N(c3ccc(C)cc3)C2=O)c1 (stereo not drawn) | 2.3 |
| Cc1ccc(N(CC(=O)N(Cc2ccccc2)Cc2ccccc2)S(C)(=O)=O)cc1 | -7.5 |
| C#CCOc1c(Br)cc(/C=C2\C(=O)NC(=O)N(c3cc(C)cc(C)c3)C2=O)cc1OC | -80.6 |
| COc1ccccc1NC(=O)C1C2C3CCC(C3)C12 (stereo not drawn) | -0.3 |
| CC1=C(C)CC2C(=O)N(c3ccc(N4CCCCC4)cc3)C(=O)C2C1 (stereo not drawn) | -24.4 |
